Data as given in PubChem BioAssay AID686978 (National Center for Advancing Translational Sciences (NCATS), 2013).
Out of some 420,000 compounds screened, about 64,000 (15%) were called active. The inconclusive results got no clear call from the source; some entries with a clear call stand among them for comparison. Calls follow the shape of the dose curve; as a rule, active = well fitted inhibition curve with a large enough effect; inconclusive = small, poorly fitted or top-dose-only effect; inactive = flat fitted curve, though single readings scatter. Potencies of inconclusive entries are left out as doubtful fits.

Assay: qHTS for Inhibitors of human tyrosyl-DNA phosphodiesterase 1 (TDP1): qHTS in cells in absence of CPT; also: nearly all actives have a fitted effect of over 55% in size
Settings: DT40 Tdp1-/- hTDP1 cells, no CPT, ATP luminescence, 48 h; activity change, negative = growth inhibition: at 46.2 µM (top of the series) unless noted
Procedure, shortened: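 Chicken DT40 Tdp1-/- cells stably complemented with human TDP1 were seeded at 400 cells/well with DMSO in place of 20 nM camptothecin. After compound pinning, cells grew at least 48 hr at 37 °C; viability read by CellTiter-Glo luminescence.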
% is scaled to controls: 0 for no effect and ±100 for the full control effect; potency is read from the fitted curve at half-maximal effect; tags tell the direction and shape of the fitted curve.

| SMILES | Potency | activity change, negative = growth inhibition |
| --- | --- | --- |
| NNC(=O)c1cc2ccccc2cc1NS(=O)(=O)c1ccccc1 | inactive | – |
| COCC(C)NC(=O)c1cc2cccc([N+](=O)[O-])c2[nH]1 (centres undefined) | inactive | – |
| CN(c1ccccc1)S(=O)(=O)c1cccc(C(=O)Nc2ncn[nH]2)c1 | inactive | – |
| CNC(=S)Nc1ccc2[nH]c(=O)[nH]c2c1 | inactive | – |
| Cc1cc(C)nc(SCc2ccc(C(=O)N/N=C3\CC(C)CC(C)(C)C3)cc2)n1 (centres undefined) | inconclusive [inhibitor, single point] | – |
| CC(C)N1CCc2c(sc(NC(=O)C3CCCCC3)c2C(N)=O)C1 | inconclusive [inhibitor, single point] | – |
| COc1ccc(/C=C\c2onc(C)c2S(=O)(=O)N2CCC(C(=O)Nc3cccc(C)c3C)CC2)cc1 | inactive | – |
| CN(CC(=O)N1CCN(Cc2ccccc2)CC1)S(=O)(=O)c1cccc2nsnc12 | inconclusive [inhibitor, partial curve] | – |
| COc1cc2c(C#N)c(N3CCCCC3)nc(N)c2c(N)n1 | active: 13 µM | – |
| COC(=O)c1c(NC(=O)CSc2nnnn2-c2ccccc2)sc2c1CCCC2 | inconclusive [inhibitor, single point] | – |
| NNC(=O)c1ccc(Oc2cc(Cl)cc(Cl)c2)o1 | inconclusive [inhibitor, single point] | – |
| O=C(Cn1ccsc1=NC(=O)C(F)(F)F)c1ccccc1 | inactive | – |
| Cc1cn([C@H]2C[C@H](O)[C@@H](/C=C/C(=O)NCCc3ccc4ccccc4c3)O2)c(=O)[nH]c1=O | inactive | – |
| CCOC(=O)C1CCCN(C(=O)CCc2nc3sc4c(c3c(=O)[nH]2)CCCC4)C1 (centres undefined) | inactive | – |
| Cc1ccc(S(=O)(=O)N2CCC(=O)N(CCOCc3ccc(F)cc3)CC2)cc1 | inconclusive [inhibitor, single point] | – |
| COC(=O)c1ccccc1S(=O)(=O)Oc1ccc(-c2ccc(C(=O)O)cc2)cc1 | inactive | – |
| COc1cc2c(cc1OC)C(C)N(CCc1ccc(Cl)cc1)CC2 (centres undefined) | inconclusive [inhibitor, partial curve, poor fit] | – |
| COCCCNC(=O)C[C@@H]1C[C@@]2(C(=O)OC)CCCCC=C2N(Cc2ccc3c(c2)OCO3)C1=O | – | inconclusive: -32.8% [inhibitor] |
| CCn1c(SCC(=O)Nc2cccc(OC)c2)nc2ccccc2c1=O | inconclusive [inhibitor, single point] | – |
| CC(NS(=O)(=O)c1ccc(OCC(=O)N2CCOCC2)c(Cl)c1)c1ccccc1 (centres undefined) | inconclusive [inhibitor, full curve] | – |
| O=S(=O)(Nc1ccc(-c2ccc(N3CCCCCC3)nn2)cc1)c1cccc(C(F)(F)F)c1 | inconclusive [inhibitor, single point] | – |
| COc1ccc(CCNc2nc(SCc3ccc(F)cc3)nc3ccccc23)cc1OC | active: 7.31 µM | – |
| CCc1nn(CC(=O)N2CCN(c3cc(C)ccc3C)CC2)c(=O)c2cc3occc3n12 | inconclusive [inhibitor, full curve, poor fit] | – |
| CC1=C(c2ccc(C)c(C)c2)S(=O)(=O)N=C1N1CCC(C(=O)Nc2ccc(Cl)cc2)CC1 | active: 14.6 µM | – |
| CCn1c(N2CCN(CC(=O)c3ccc(OC)cc3)CC2)nc2ccccc21 | inactive | – |

| SMILES | Potency | activity change, negative = growth inhibition |
| --- | --- | --- |
| O=C(COc1ccc(Cl)cc1)NCc1nnc(SCC(=O)N2CCCc3ccccc32)o1 | inconclusive [inhibitor, single point] | – |
| COc1ccc(C(=O)Nc2ccc(C3CC3(Cl)Cl)cc2)cc1 (centres undefined) | inconclusive [inhibitor, partial curve] | – |
| O=C(CSc1nc2ccccc2s1)N/N=C/c1ccc(C(=O)O)cc1 | – | inconclusive: -31.5% [inhibitor] |
| CCC(=O)c1ccc(NC(C)=O)cc1O | inactive | – |
| Cc1ccc(CNC(=O)C2(C(F)(F)F)C/C(=C\Cc3ccccc3)CCCO2)o1 (centres undefined) | active: 11.6 µM | – |
| COC(=O)c1c(NC(=O)C2COc3ccccc3O2)sc2c1CCN(C(=O)OC)C2 (centres undefined) | active: 20.6 µM | – |
| CCn1nc(C)c(CN2CCN(Cc3ccc(OC)c(C)c3C)C(CCO)C2)c1C (centres undefined) | inconclusive [inhibitor, partial curve, poor fit] | – |
| CCOC(=O)N1CCN(C(=O)CSCC(=O)Nc2nc(-c3ccc(C)cc3)cs2)CC1 | active: 11.6 µM | – |
| N#Cc1ccc(NC(=O)c2cc(-c3cccc(Cl)c3)on2)cc1 | inactive | – |
| O=C(Nc1nccs1)c1ccccc1Br | inactive | – |
| Cc1cc(Oc2ccc(Cl)cc2Cl)nc(C#N)n1 | active: 17.8 µM | – |
| COc1cccc(-c2cc(C(=O)Nc3c(C)nn(Cc4ccccc4)c3C)no2)c1 | active: 18.4 µM | – |
| CNC(=O)c1ccc(CSc2nc3cccnc3n2Cc2cccc(F)c2)cc1 | active: 18.4 µM | – |
| O=C(Cn1cnc2cc([N+](=O)[O-])ccc2c1=O)Nc1ccc(Br)cc1 | inactive | – |
| CN(C)CCCN=C(NO)c1ccc(Cl)cc1Cl | inactive | – |
| CCN1C(=O)/C(=C\C=C2/C=CC=CN2CC)SC1=S | active: 29.1 µM | – |
| COc1ccc(Oc2ncc3nc(-c4ccccc4)c(=O)n(Cc4cccs4)c3n2)cc1 | inconclusive [inhibitor, single point] | – |
| COc1ccccc1NC(=O)COC(=O)c1cnccn1 | inactive | – |
| O=C(N/N=C/c1c(O)ccc2ccccc12)Nc1ccccc1 | active: 14.6 µM | – |
| CCOC(=O)CNC(=O)N1CCC(CCOc2ccccc2)(C(=O)OCC)CC1 | inconclusive [inhibitor, single point] | – |
| CCCN(CCC)CC(O)COc1ccc([N+](=O)[O-])cc1 (centres undefined) | inconclusive [inhibitor, partial curve] | – |
| O=C(CN1C(=O)NC2(CCCc3ccccc32)C1=O)NC1CCCCC1 (centres undefined) | inactive | – |
| Cc1nc(SCc2ccccc2)c2oc3ccccc3c2n1 | inconclusive [inhibitor, single point] | – |
| CN1CCN(c2cc(-c3ccc4ccccc4c3)nc3ccnn23)CC1 | inconclusive [inhibitor, single point] | – |
